Hit rate of the full screen: of about 310,000 compounds, about 14,000 (4.5%) showed an effect of 50% or more. The effect is printed as a negative number. The list shows a part of the results.
target: human ether-à-go-go-related gene (hERG) potassium channel (human, UniProt Q12809); assay: primary screen, population patch clamp on CHO cells stably expressing hERG
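Further: peak tail current of the secondary pulse compared with the same well before compound.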

human ether-à-go-go-related gene (hERG) potassium channel, sequence (Q12809 whole entry, looked up): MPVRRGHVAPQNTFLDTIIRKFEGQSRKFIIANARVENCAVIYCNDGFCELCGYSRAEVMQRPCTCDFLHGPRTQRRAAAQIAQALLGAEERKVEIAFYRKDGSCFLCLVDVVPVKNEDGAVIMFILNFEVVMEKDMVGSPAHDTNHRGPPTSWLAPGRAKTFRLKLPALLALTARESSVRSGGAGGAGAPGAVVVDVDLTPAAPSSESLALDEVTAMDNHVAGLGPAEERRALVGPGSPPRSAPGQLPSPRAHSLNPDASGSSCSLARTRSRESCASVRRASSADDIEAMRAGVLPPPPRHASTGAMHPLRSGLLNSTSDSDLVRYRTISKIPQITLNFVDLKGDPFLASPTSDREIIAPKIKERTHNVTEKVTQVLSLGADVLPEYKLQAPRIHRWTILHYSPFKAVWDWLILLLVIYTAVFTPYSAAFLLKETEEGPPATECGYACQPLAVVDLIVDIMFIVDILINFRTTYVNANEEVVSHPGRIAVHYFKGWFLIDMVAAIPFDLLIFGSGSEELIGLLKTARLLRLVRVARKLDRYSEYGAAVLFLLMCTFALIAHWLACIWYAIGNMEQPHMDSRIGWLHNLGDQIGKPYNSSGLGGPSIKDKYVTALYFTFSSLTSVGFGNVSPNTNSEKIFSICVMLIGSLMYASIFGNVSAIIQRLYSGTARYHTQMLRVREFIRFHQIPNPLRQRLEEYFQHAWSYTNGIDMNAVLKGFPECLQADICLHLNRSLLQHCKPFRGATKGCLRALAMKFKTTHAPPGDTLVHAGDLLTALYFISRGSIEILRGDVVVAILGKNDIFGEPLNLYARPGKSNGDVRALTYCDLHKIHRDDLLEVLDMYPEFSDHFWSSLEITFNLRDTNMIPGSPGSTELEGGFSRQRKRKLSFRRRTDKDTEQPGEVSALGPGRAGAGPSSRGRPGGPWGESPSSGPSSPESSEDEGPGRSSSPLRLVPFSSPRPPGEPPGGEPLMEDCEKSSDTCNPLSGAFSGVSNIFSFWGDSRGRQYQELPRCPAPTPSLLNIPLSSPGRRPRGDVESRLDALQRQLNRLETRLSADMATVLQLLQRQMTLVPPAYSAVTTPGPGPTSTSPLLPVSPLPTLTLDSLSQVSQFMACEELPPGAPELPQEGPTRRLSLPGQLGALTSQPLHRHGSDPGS

Question: With COCCNC(=O)C(c1ccc(C)o1)N(CCOC)C(=O)Cn1nnc2ccccc21 (centres unmarked) as the molecule, how does the “hERG current change (%, negative = inhibition) at 10uM” value read?
Answer: The value was 9.53%.

Question: With CCCCCC(=O)NNC1CC(=O)N(c2ccccc2)C1=O (centres unmarked) as the molecule, how does the “hERG current change (%, negative = inhibition) at 10uM” value read?
Answer: The value was -6.15%.

Question: For Cc1ccc(-c2nn3c(=O)c(C)nnc3s2)cc1, which “hERG current change (%, negative = inhibition) at 10uM” value is on record?
Answer: The value was 7.17%.

Question: Which “hERG current change (%, negative = inhibition) at 10uM” value does the source give for COc1ccc(CNC(=O)[C@H](C)N2C(=O)N3CCc4c([nH]c5ccccc45)[C@@]3(C)C2=O)cc1OC here?
Answer: The value was -15.7%.

Question: Which “hERG current change (%, negative = inhibition) at 10uM” value does the source give for Cc1sc2ncnc(SCC(=O)NC(=O)c3cccn3C)c2c1C here?
Answer: The value was 10.8%.

Question: How did the “hERG current change (%, negative = inhibition) at 10uM” value turn out when Cc1c(Cl)cccc1NC(=S)N1CCN(C(=O)C2CCCO2)CC1 (centres unmarked) was run?
Answer: The value was 25.8%.

Question: Which “hERG current change (%, negative = inhibition) at 10uM” value does the source give for Cc1cccc(-n2c(-c3ccco3)nc3ccccc3c2=O)n1 here?
Answer: The value was 14.2%.

Question: With COc1cccc(NC(=O)CSc2nn3c(=O)c(C)nnc3s2)c1 as the molecule, how does the “hERG current change (%, negative = inhibition) at 10uM” value read?
Answer: The value was 13.9%.

Question: For Cc1cc(C)c(NC(=O)C2c3ccccc3Oc3ccccc32)c(C)c1, which “hERG current change (%, negative = inhibition) at 10uM” value is on record?
Answer: Its value is 5.72%.

Question: For O=C(Nc1nc2ccccc2n1CCN1CCCC1)C1CCCCC1, which “hERG current change (%, negative = inhibition) at 10uM” value is on record?
Answer: Its value is -58.6%.

Question: Which “hERG current change (%, negative = inhibition) at 10uM” value does the source give for COC(=O)c1cccc(NC(=O)CCNC(=O)c2ccco2)c1 here?
Answer: Its value is 18.8%.

Question: Cc1cc(C)cc(NC(=O)CSc2ccccc2)c1 was tested. Which “hERG current change (%, negative = inhibition) at 10uM” value did it give?
Answer: The value was 3.83%.

Question: Which “hERG current change (%, negative = inhibition) at 10uM” value does the source give for Cc1cccc(-n2c(SCc3cc(=O)n4c(C)cccc4n3)nc3[nH]ncc3c2=O)c1 here?
Answer: Its value is -26.8%.

Question: With CCOC(=O)c1oc2ccccc2c1CSc1nnc(-c2ccco2)o1 as the molecule, how does the “hERG current change (%, negative = inhibition) at 10uM” value read?
Answer: The value was 9.92%.

Question: How did the “hERG current change (%, negative = inhibition) at 10uM” value turn out when COc1ccccc1NC(=S)NCc1cccnc1 was run?
Answer: Its value is 9.93%.

Question: C#CCN(Cc1ccco1)C(=O)c1cc(COc2ccc(F)cc2Cl)on1 was tested. Which “hERG current change (%, negative = inhibition) at 10uM” value did it give?
Answer: Its value is -7.47%.

Question: O=c1[nH]c(=O)n(-c2cccc3ccccc23)c(O)c1/C=N/N1CCCCC1 was tested. Which “hERG current change (%, negative = inhibition) at 10uM” value did it give?
Answer: Its value is 11.6%.

Question: For COc1cccc([C@@H]2Oc3ccc(OC)cc3C(=O)[C@H]2OC(=O)NCc2ccc3c(c2)OCO3)c1, which “hERG current change (%, negative = inhibition) at 10uM” value is on record?
Answer: The value was -7.43%.

Question: How did the “hERG current change (%, negative = inhibition) at 10uM” value turn out when COc1ccc(-c2ccc(-c3noc(C4CCCCC4)n3)c(OC)n2)cc1 was run?
Answer: The value was 8.87%.

Question: How did the “hERG current change (%, negative = inhibition) at 10uM” value turn out when Cc1cccc(OCCC(=O)Nc2cc(S(=O)(=O)N3CCCCC3)ccc2N2CCOCC2)c1 was run?
Answer: The value was 6.71%.

Question: With O=C(Nc1ccccc1)N1CCN(c2ccc(F)cc2)CC1 as the molecule, how does the “hERG current change (%, negative = inhibition) at 10uM” value read?
Answer: Its value is -7.74%.

Question: How did the “hERG current change (%, negative = inhibition) at 10uM” value turn out when CCn1cc(-c2cc(C(=O)O)on2)c(C)n1 was run?
Answer: Its value is 17.7%.

Question: Which “hERG current change (%, negative = inhibition) at 10uM” value does the source give for COc1cc(NC(=O)c2onc(C)c2Cl)c(OC)cc1Cl here?
Answer: Its value is 9.96%.

Question: O=[N+]([O-])c1ccc2c(c1Nc1ccccc1Cl)=NC1(CCCCC1)N=2 was tested. Which “hERG current change (%, negative = inhibition) at 10uM” value did it give?
Answer: Its value is 3.29%.

Question: How did the “hERG current change (%, negative = inhibition) at 10uM” value turn out when CCc1cc2c(=O)c(-c3ccc4c(c3)OCCO4)coc2c(CN2CCCCC2C)c1O (centres unmarked) was run?
Answer: The value was 16%.

Question: For CCCOc1ccc(CC(CC(=O)O)(C(=O)O)C(=O)O)cc1, which “hERG current change (%, negative = inhibition) at 10uM” value is on record?
Answer: Its value is 13.5%.

Question: With CC1CCN(c2ccc(S(=O)(=O)N3CCC(C)CC3)cc2N)CC1 as the molecule, how does the “hERG current change (%, negative = inhibition) at 10uM” value read?
Answer: The value was 6.3%.

Question: COc1ccc(CNC(=O)COC(=O)CO/N=C(\C)c2ccc3c(c2)OCO3)cc1 was tested. Which “hERG current change (%, negative = inhibition) at 10uM” value did it give?
Answer: The value was -19.2%.

Question: For CCCS(=O)(=O)N1CCCC(C(=O)NCCCN(Cc2ccccc2)C(C)C)C1 (centres unmarked), which “hERG current change (%, negative = inhibition) at 10uM” value is on record?
Answer: Its value is -7.98%.

Question: With Cc1cccc(C)c1NC(=O)C1CCN(C(=O)c2cccs2)CC1 as the molecule, how does the “hERG current change (%, negative = inhibition) at 10uM” value read?
Answer: Its value is 13.9%.

Question: COC(=O)c1cc(C(=O)N2CCN(C(=O)c3ccco3)CC2)cc([N+](=O)[O-])c1 was tested. Which “hERG current change (%, negative = inhibition) at 10uM” value did it give?
Answer: Its value is -66.7%.

Question: For CC(C)NC(=O)N1CCC(c2nc3ccccc3s2)CC1, which “hERG current change (%, negative = inhibition) at 10uM” value is on record?
Answer: Its value is -3.32%.

Question: How did the “hERG current change (%, negative = inhibition) at 10uM” value turn out when CCOc1ccc(S(=O)(=O)N2CCCC(C(=O)Nc3cc(C)cc(C)c3)C2)cc1 (centres unmarked) was run?
Answer: The value was 14.6%.

Question: Which “hERG current change (%, negative = inhibition) at 10uM” value does the source give for O=C(C1CCN(c2nnc(-n3cccc3)s2)CC1)N1CCN(Cc2ccc3c(c2)OCO3)CC1 here?
Answer: The value was -68.2%.

Question: With O=C(N/N=C/c1cc(Cl)cc([N+](=O)[O-])c1O)C(O)(c1ccccc1)c1ccccc1 as the molecule, how does the “hERG current change (%, negative = inhibition) at 10uM” value read?
Answer: The value was -53%.

Question: How did the “hERG current change (%, negative = inhibition) at 10uM” value turn out when Cc1cc(NC(=O)Nc2ccc(Cl)cc2)n(C(C)(C)C)n1 was run?
Answer: The value was 17.7%.

Question: Which “hERG current change (%, negative = inhibition) at 10uM” value does the source give for COc1ccc(CCN(C)CC(O)c2ccccc2)cc1OC.O=C(O)C(=O)O (centres unmarked) here?
Answer: Its value is -32.2%.

Question: How did the “hERG current change (%, negative = inhibition) at 10uM” value turn out when CCOC(=O)[C@H]1[C@H]2COc3ccc(Br)cc3[C@@H]2N2C(=O)c3cc(OC)c(OC)cc3NC(=O)[C@@]12C was run?
Answer: The value was -4.84%.

Question: CCOC(=O)Cn1c(=O)oc2cc(S(=O)(=O)N3CCC(N4CCCCC4)CC3)ccc21 was tested. Which “hERG current change (%, negative = inhibition) at 10uM” value did it give?
Answer: Its value is 5.74%.

Question: Which “hERG current change (%, negative = inhibition) at 10uM” value does the source give for CCOP(=O)(OCC)C(NCc1ccccc1)c1ccc(Br)cc1 (centres unmarked) here?
Answer: Its value is -4.68%.

Question: How did the “hERG current change (%, negative = inhibition) at 10uM” value turn out when Cc1cccc(C(C)C)c1-n1nnnc1-c1ccccc1 was run?
Answer: Its value is -6.28%.

Question: How did the “hERG current change (%, negative = inhibition) at 10uM” value turn out when COc1ccccc1N1CCN(C2CCCC(C)C2)CC1 (centres unmarked) was run?
Answer: Its value is -4.44%.

Question: Cl.O=C(O)CCn1c(CO)nc2ccccc21 was tested. Which “hERG current change (%, negative = inhibition) at 10uM” value did it give?
Answer: Its value is 22.1%.

Question: How did the “hERG current change (%, negative = inhibition) at 10uM” value turn out when Cc1nnc(-c2cnn(C)c2N)n1CCCN(C)C was run?
Answer: Its value is 16.3%.

Question: How did the “hERG current change (%, negative = inhibition) at 10uM” value turn out when CC1=NN(c2nc(-c3ccc(C)cc3)cs2)C(=O)C1N=Nc1ccc2ccccc2c1 (centres unmarked) was run?
Answer: The value was -8.04%.

Question: CC(C)(O)C#Cc1ccc(CN2CCN(C3CCCC3)C(CCO)C2)cc1 (centres unmarked) was tested. Which “hERG current change (%, negative = inhibition) at 10uM” value did it give?
Answer: Its value is 6.32%.

Question: With CC(=O)N1CCN(Cc2nc3cc([N+](=O)[O-])ccc3n2C)CC1 as the molecule, how does the “hERG current change (%, negative = inhibition) at 10uM” value read?
Answer: Its value is -4.94%.

Question: How did the “hERG current change (%, negative = inhibition) at 10uM” value turn out when C=CCNc1nc(C(=O)OCC(=O)c2ccc(C)c([N+](=O)[O-])c2)cs1 was run?
Answer: Its value is 12.8%.

Question: With Cc1ccc2nc(NC(=O)c3cc(-c4ccco4)nc4ccccc34)sc2c1 as the molecule, how does the “hERG current change (%, negative = inhibition) at 10uM” value read?
Answer: Its value is 10.1%.

Question: How did the “hERG current change (%, negative = inhibition) at 10uM” value turn out when Nc1nc(-c2cccs2)cs1 was run?
Answer: Its value is -0.0742%.

Question: How did the “hERG current change (%, negative = inhibition) at 10uM” value turn out when O=C1CN(C(=O)COC(=O)COc2ccc3c(c2)CCC3)c2ccccc2N1 was run?
Answer: Its value is 6.66%.

Question: Which “hERG current change (%, negative = inhibition) at 10uM” value does the source give for COC(=O)[C@H]1[C@H]2C[C@H]3c4[nH]c5ccccc5c4CCN3C[C@@H]2CC[C@@H]1O here?
Answer: The value was -12.5%.

Question: How did the “hERG current change (%, negative = inhibition) at 10uM” value turn out when O=C(c1cccs1)c1c[nH]cc1-c1ccccc1 was run?
Answer: The value was 11.3%.

Question: With CC(=O)Nc1ccc(NC(=O)CCOc2cc(C)ccc2C)cc1 as the molecule, how does the “hERG current change (%, negative = inhibition) at 10uM” value read?
Answer: The value was 16.2%.

Question: Which “hERG current change (%, negative = inhibition) at 10uM” value does the source give for CCn1ccnc1CN1CCc2c([nH]c3ccccc23)C1C(C)(C)C (centres unmarked) here?
Answer: Its value is -59.7%.

Question: CC(C)(C)OC(=O)NCCCCCc1nnc(SCc2ccccc2F)o1 was tested. Which “hERG current change (%, negative = inhibition) at 10uM” value did it give?
Answer: Its value is -12.4%.

Reference: article PMC4336329 (PLoS ONE, 2015)
